This passage reports ADCP EC50 Value results from patent US20230416410A1.

In the test the target is Fc gamma receptors on bovine alveolar macrophages. Briefly: cell-based or functional assay.

B1: CTLA4 Fc bIgG1aWin (Fc fusion, canine)
chain: [sequence of about 120 residues not given]DPRCKTTCDCCPPPEAAGAPSVFIFPPKPKDTLTISGTPEVTCVVVDVGHDDPEVKFSWFVDDVEVNTATTKPREEQFNSTYRVVSALRIQHQDWTGGKEFKCKVHNEGLPAPIVRTISRTKGPAREPQVYVLAPPQEELSKSTVSLTCMVTSFYPDYIAVEWQRNGQPESEDKYGTTPPQLDADGSYFLYSRLRVDRNSWQEGDTYTCVVMHEALHNHYTQKSTSKSAGK
As to B1, the ADCP EC50 Value is 0.002 µg/mL.

B2: CTLA4 Fc bIgG1aWinSS (Fc fusion, canine)
chain: [sequence of about 120 residues not given]DPRCKTTCDCCPPPEAAGAPSVFIFPPKPKDTLTISGTPEVTCVVVDVGHDDPEVKFSWFVDDVEVNTATTKPREEQFNSTYRVVSALRIQHQDWTGGKEFKCKVHNEGLPSSIVRTISRTKGPAREPQVYVLAPPQEELSKSTVSLTCMVTSFYPDYIAVEWQRNGQPESEDKYGTTPPQLDADGSYFLYSRLRVDRNSWQEGDTYTCVVMHEALHNHYTQKSTSKSAGK
B2 yielded an ADCP EC50 Value of 0.041 µg/mL.
